Assay results published in the supplement of paper PMC11417369.
Some of the results follow.

Each sequence was assayed on PfAP2-HC AP2 domain (GST-tagged) (assay: gcPBM binding intensity (ln(normalized median fluorescence intensity)); higher = stronger DNA binding).
In short: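 Binding intensity is defined as the maximum Masliner-normalised natural-log median intensity across replicate spots for either probe orientation. It was measured on an Agilent 4 × 180k array of primer-extended double-stranded 36-bp intergenic genomic probes and negative controls, to which GST-tagged P. falciparum DNA-binding domains made in E. coli were applied for 1 h in 1× PBS with 1% milk, 0.2 mg/ml BSA, 0.5% salmon testes DNA and 0.03% Triton X-100. Detection was by Alexa488 anti-GST antibody and scanning at 488 nm.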

Sequence	gcPBM binding intensity (ln)
TAATTCGCAAAAGAAAGAAATTAAGAAAAAGAAAAA [XGTACX_negctrl_site614]	9.17
TTCAATAGTAAGTATACACACATATATATATATAAA [CACACA_site2687]	9.91
TTTCTTTTTTTTTTTTCATTGATCCATTTATGATTA [TGCATGCA_negctrl_site225]	9.48
TTATAGGTTCTATACATATATTTATATATGTACAGA [CACACA_negctrl_site60]	9.38
TTTTTAAAAATATACACACACAGATATTATAGATAT [CACACA_site6511]	10.1
CAAGCTATGTATTCTACACACACATACACCCATATA [CACACA_site9133]	10.1
TATGAAAAAATATATACACACATAATAAAGGTATAT [CACACA_site3737]	9.9
TAATATTATATATAAACACACATACCCATGTAAATA [CACACA_site5170]	9.92
TTTGTTTTAAATATTATACACACGTAAAAGTATAAT [CACACA_site7954]	9.6
AAAAAAAAAAATATATTATTTTACTTGTTTATTTTT [GTGCAC_negctrl_site435]	9.55
AATAATCAAATATTAAAAATTGTGCAAAAAAAAAAA [XGTACX_negctrl_site399]	9.77
TCGTACTTGTATTATGCACACATATAATTAAACATA [CACACA_site9089]	9.77
ATATATATATATATATGTACATAATAATATATATTA [XGTACX_site111]	9.93
TAAAAGGTGTATATAATACACACGTGGGATTAGAAT [CACACA_site610]	9.96
AAAAAATATACATATACACACATATGTATATAGAAT [CACACA_site2170]	9.98
TATATAAAGCATTGTAGTACTACCAATATTTTTTTT [XGTACX_site3523]	9.79
AAAATAAACAATGAACAATAAACAATGAACAATGAA [CACACA_negctrl_site1194]	9.82
AAAATATTATAAATTTGTACTTATAAATATTGTATA [XGTACX_site8165]	9.55
ATATGTTATATGTAATGTACTTTTGATGTATATATT [XGTACX_site8615]	9.81
TAATAAATAAAATATGCACACAAATATAGGAAACAA [CACACA_site8820]	9.99
ATATATATAATATAATGTACGTATAATAATATGAGA [XGTACX_site2282]	9.96
CGTTATATATATAAAAGTACAAAAATTAAACATTCC [XGTACX_site4568]	9.71
ATATGTAAATAAATATGTACTCATTTATTATTTTAT [XGTACX_site8748]	9.71
ATATTTTATGTGTTGGTGCACATCTTTATTTAAACT [GTGCAC_site9736]	9.89
